From PMC9505218, “Nitrostilbenes: Synthesis and Biological Evaluation as Potential Anti-Influenza Virus Agents” (Pharmaceuticals, 2022)

System: viral nucleoprotein (NP) nuclear-cytoplasmic traffic
Test: Immunofluorescence analysis of viral nucleoprotein localisation

Compound | localisation of viral NP
O=[N+]([O-])c1ccc(/C=C/c2ccc(O)c(Cl)c2)cc1 [Compound 6] | retain viral NP in the nucleus
O=[N+]([O-])c1ccc(/C=C/c2ccc(O)cc2)cc1 [Compound 7] | retain viral NP in the nucleus
